# From paper PMC5540273 (PLoS ONE, 2017)
# For some of these results: What follows is the remainder of the data, with few or none of the strong results. The list shows a part of the results, in another mix than the full data.
# Tested on: T1, MST3
# T1 construct: gene STK24
# Settings: concentration: 1 μM,replicates: in singlicate; n = 1
# 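Also: KINOMEscan kinase panel screen.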
row,Structure (SMILES),%Inh [%]
1,O=C1NC(=O)C(c2ccccc2Cl)=C1Nc1ccccc1 [SB-376715],0
2,CSc1ccc(NC2=C(c3cccc(Cl)c3)C(=O)NC2=O)cc1 [SB-341528],4
3,O=C1NC(=O)C(c2ccc(Cl)cc2)=C1Nc1ccccc1 [SB-317661],0
4,COc1ccc(C2=C(Nc3cccc(Cl)c3)C(=O)NC2=O)cc1 [SB-326892],0
5,O=C1NC(=O)C(c2ccccc2Cl)=C1Nc1cccc(C(=O)O)c1 [SB-390526],0
6,COc1cccc(C2=C(Nc3ccc(SC)cc3)C(=O)NC2=O)c1 [SB-331032],3
7,O=C(O)c1ccc(-c2nc(-c3ccc(F)cc3)c(-c3ccncc3)[nH]2)cc1 [SB-202620],10
8,O=C1NC(=O)C(c2ccccc2)=C1Nc1ccc(Cl)c(C(=O)O)c1 [SB-390532],0
9,O=C1NC(=O)C(c2ccc(Cl)cc2)=C1Nc1cccc(O)c1 [SB-333613],21
10,CS(=O)(=O)c1ccccc1-c1nc(-c2ccc(F)cc2)c(-c2ccncc2)[nH]1 [SB-213663],0
11,Cc1cc(C)cc(Oc2nccc(-c3c(-c4ccc(F)cc4)ncn3C3CCNCC3)n2)c1.O=C(O)C(F)(F)F.O=C(O)C(F)(F)F.O=C(O)C(F)(F)F [SB-284851],0
12,O=C1NC(=O)C(c2ccc(Cl)cc2)=C1Nc1cccc(C(=O)O)c1 [SB-360737],0
13,O=C1NC(=O)C(c2ccc(Cl)cc2)=C1Nc1ccc(O)c(Cl)c1 [SB-405367],0
14,O=C1NC(=O)C(c2ccccc2)=C1Nc1cc(Cl)c(O)c(Cl)c1 [SB-390530],0
15,Cc1ccc(C)c(Oc2nccc(-c3c(-c4ccc(F)cc4)ncn3C3CCNCC3)n2)c1.O=C(O)C(F)(F)F.O=C(O)C(F)(F)F.O=C(O)C(F)(F)F [SB-284852],16
16,O=C1NC(=O)c2c1c(-c1ccccc1)cc1[nH]c3ccc(O)cc3c21,25

# Tested on: MST4
# Settings: concentration: 1 μM,replicates: in singlicate; n = 1
row,Structure (SMILES),%Inh [%]
1,O=C1NC(=O)C(c2ccccc2Cl)=C1Nc1ccccc1 [SB-376715],1
2,CSc1ccc(NC2=C(c3cccc(Cl)c3)C(=O)NC2=O)cc1 [SB-341528],0
3,O=C1NC(=O)C(c2ccc(Cl)cc2)=C1Nc1ccccc1 [SB-317661],0
4,COc1ccc(C2=C(Nc3cccc(Cl)c3)C(=O)NC2=O)cc1 [SB-326892],0
5,O=C1NC(=O)C(c2ccccc2Cl)=C1Nc1cccc(C(=O)O)c1 [SB-390526],0
6,COc1cccc(C2=C(Nc3ccc(SC)cc3)C(=O)NC2=O)c1 [SB-331032],0
7,O=C(O)c1ccc(-c2nc(-c3ccc(F)cc3)c(-c3ccncc3)[nH]2)cc1 [SB-202620],4
8,O=C1NC(=O)C(c2ccccc2)=C1Nc1ccc(Cl)c(C(=O)O)c1 [SB-390532],0
9,O=C1NC(=O)C(c2ccc(Cl)cc2)=C1Nc1cccc(O)c1 [SB-333613],32
10,CS(=O)(=O)c1ccccc1-c1nc(-c2ccc(F)cc2)c(-c2ccncc2)[nH]1 [SB-213663],0
11,Cc1cc(C)cc(Oc2nccc(-c3c(-c4ccc(F)cc4)ncn3C3CCNCC3)n2)c1.O=C(O)C(F)(F)F.O=C(O)C(F)(F)F.O=C(O)C(F)(F)F [SB-284851],0
12,O=C1NC(=O)C(c2ccc(Cl)cc2)=C1Nc1cccc(C(=O)O)c1 [SB-360737],0
13,O=C1NC(=O)C(c2ccc(Cl)cc2)=C1Nc1ccc(O)c(Cl)c1 [SB-405367],0
14,O=C1NC(=O)C(c2ccccc2)=C1Nc1cc(Cl)c(O)c(Cl)c1 [SB-390530],0
15,Cc1ccc(C)c(Oc2nccc(-c3c(-c4ccc(F)cc4)ncn3C3CCNCC3)n2)c1.O=C(O)C(F)(F)F.O=C(O)C(F)(F)F.O=C(O)C(F)(F)F [SB-284852],0

# Tested on: MTOR
# Settings: concentration: 1 μM,replicates: in singlicate; n = 1
row,Structure (SMILES),%Inh [%]
1,O=C1NC(=O)C(c2ccccc2Cl)=C1Nc1ccccc1 [SB-376715],5
2,CSc1ccc(NC2=C(c3cccc(Cl)c3)C(=O)NC2=O)cc1 [SB-341528],0
3,O=C1NC(=O)C(c2ccc(Cl)cc2)=C1Nc1ccccc1 [SB-317661],33
4,COc1ccc(C2=C(Nc3cccc(Cl)c3)C(=O)NC2=O)cc1 [SB-326892],14
5,O=C1NC(=O)C(c2ccccc2Cl)=C1Nc1cccc(C(=O)O)c1 [SB-390526],13
6,COc1cccc(C2=C(Nc3ccc(SC)cc3)C(=O)NC2=O)c1 [SB-331032],25
7,O=C(O)c1ccc(-c2nc(-c3ccc(F)cc3)c(-c3ccncc3)[nH]2)cc1 [SB-202620],0
8,O=C1NC(=O)C(c2ccccc2)=C1Nc1ccc(Cl)c(C(=O)O)c1 [SB-390532],12
9,O=C1NC(=O)C(c2ccc(Cl)cc2)=C1Nc1cccc(O)c1 [SB-333613],42
10,CS(=O)(=O)c1ccccc1-c1nc(-c2ccc(F)cc2)c(-c2ccncc2)[nH]1 [SB-213663],0
11,Cc1cc(C)cc(Oc2nccc(-c3c(-c4ccc(F)cc4)ncn3C3CCNCC3)n2)c1.O=C(O)C(F)(F)F.O=C(O)C(F)(F)F.O=C(O)C(F)(F)F [SB-284851],7
12,O=C1NC(=O)C(c2ccc(Cl)cc2)=C1Nc1cccc(C(=O)O)c1 [SB-360737],9
13,O=C1NC(=O)C(c2ccc(Cl)cc2)=C1Nc1ccc(O)c(Cl)c1 [SB-405367],0
14,O=C1NC(=O)C(c2ccccc2)=C1Nc1cc(Cl)c(O)c(Cl)c1 [SB-390530],57
15,O=C1NC(=O)c2c1c(-c1ccccc1)cc1[nH]c3ccc(O)cc3c21,9
